Data on ten compounds can be found in PubChem BioAssay (NCATS).

For orientation: AC50 means the midpoint of the concentration-response curve, whichever way the signal moves.

Some of the results follow. Further columns of the screen follow, without active or inactive calls. Compounds called inactive in the main read-out are mostly missing here. For part of these data: The note in brackets gives the kind of curve behind each potency; many fits are weak.

Test [1] is described as follows: qHTS Assay for Lipid Storage Modulators (AID 1519). As to conditions: Drosophila S3 cells, BODIPY lipid droplet/cell ratio, laser cytometry, cells loaded with oleic acid. An outline of the steps: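 Cells seeded at 5,000 per well were treated with compounds over a concentration series and loaded with oleic acid (400 uM, as added). Lipid droplet fluorescence (488 nm excitation, 500-530 nm channel) was read by laser-scanning cytometry and normalized to 20 uM Triacsin C.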

The nature of test [2]: S16 Schwann cell PMP22 intronic element beta-lactamase assay (AID 624044). Further: nearly all actives have a fitted effect of over 15% in size. As to conditions: S16 rat Schwann cells, PMP22 element beta-lactamase FRET, 24 h; measured here: 460 nm blue channel. An outline of the steps: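 Rat S16 Schwann cells with beta-Lac driven by a PMP22 intronic element, compound-treated 24 h at 37 °C. LiveBLAzer FRET B/G read: 460 nm normalized to potassium clavulanate vs DMSO; 535 nm FRET as viability; concentration-effect curves classified.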

Test [3] in a line: A High-Content qHTS Against Drug Library for the Identification of Small Molecules that Inhibit DYT1 Early Onset Primary Dystonia-Associated Cell Pathology (AID 1645839). As to conditions: HEK293 Flp-In EGFP-delE TorsinA, punctate imaging, 48 h; measured here: cell count cytotoxicity. An outline of the steps: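 Readout: %pathology, the punctate EGFP-TorsinA distribution from imaging, as the primary channel and cell count as the toxicity counterscreen. HEK293 Flp-In cells expressing delE TorsinA were induced with tetracycline and treated with compound for 48 h.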

A short description of test [4]: qHTS Assay for Inhibitors of PDE-IV (AID 607).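 Further: parental cells stimulated with forskolin 10 µM plus RO 20-1724 100 µM.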 The settings on record: HEK293 ACTOne CNG channel cells, membrane potential fluorescence; measured here: parental cell counter-screen. Put shortly: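 Cell-based read-out of cAMP via a modified cyclic nucleotide-gated channel and membrane potential dye (535/590 nm) in HEK293 cells expressing PDE4 endogenously. Compounds tested up to 22.9 uM final; 100 uM RO 20-1724 reference.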
(In qHTS, concentration-response curves come from the screen itself.)

Test [5] in a line: qHTS assay for small molecule antagonists of peroxisome proliferator-activated receptor delta signaling (AID 588535).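 Further: cells co-treated with a PPAR-delta agonist as stimulator during compound exposure.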 The settings on record: HEK293T PPARd-UAS-bla, beta-lactamase FRET ratio, 18 h; 460 nm channel. Put shortly:
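Reporter: UAS-bla under PPAR-delta response element, HEK293T host. Medium: 2% charcoal/dextran FBS. Dosing: titration, 18 hrs, 37 C. Detection: CCF4, 2 hrs RT, 405 ex/460 and 530 em.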

Test [6] is described as follows: qHTS assay for small molecule antagonists of retinoid X receptor alpha signaling (AID 588546).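 Further: cells stimulated with 9-cis-retinoic acid as agonist; on the % scale 0 is the no-effect control and ±100 the full control effect.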 As to conditions: HEK293T RXRa-UAS-bla, beta-lactamase ratio, antagonist mode; measured here: W530 green channel, cytotoxicity proxy. Put shortly: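 Beta-lactamase reporter inhibition, read as CCF4 fluorescence ratio (ex 405, em 460/530 nm) after 2 h at RT. HEK293T UAS-bla cells, 2500/well, were stimulated with 9-cis-RA at 500 or 100 nM final alongside test compound for 18 h at 37 C.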

The mark [7] stands for this setting: measured here: cell count channel max response.
Setting [8] is: measured here: lipid channel max response.
Tags describe the fitted curve by direction and shape.

With `CCC(C(=O)C(C)C(O)C(C)CCc1ccc(C)c(O)c1C(=O)O)C1OC(CC)(C2CC[C@@](O)(CC)C(C)O2)CC1C` (stereo partly specified), the max response in test [1] (setting [7]) is -22%; in test [1] (setting [8]), -80.1%. The AC50 in test [2] is 7.07 µM [falling, full curve].

For the compound `Nc1nc(=O)n([C@@H]2O[C@H](CO)[C@@H](O)[C@@H]2F)cc1I`, the AC50 in test [3] was 10 µM [rising, single point].

`COc1ccc(NC(=O)c2ccc(-c3ccc(-c4noc(C)n4)cc3C)cc2)cc1OCCN(C)C`: the half-maximal activity concentration (AC50) in test [4] is 25.1 µM [rising, single point]. Further, the results for the max response in test [1] (setting [7]) and in test [1] (setting [8]) were 50.3% and 65.2%, respectively.

In the case of `O=C(O)CN1C(=O)c2cccc3cccc(c23)C1=O`, in test [4], the half-maximal activity concentration (AC50) is 15.8 µM [rising, partial curve, poor fit]. Further, the figures for the max response in test [1] (setting [7]) and in test [1] (setting [8]) were 23.8% and 30.7%, respectively.

With `NC(=O)c1ncn([C@@H]2O[C@H](CO)[C@@H](O)[C@H]2O)n1`, the max response came to 29% in test [1] (setting [7]), 31.3% in test [1] (setting [8]), 2.03% in test [5] and 8.49% in test [6].

As to `CC(C)C[C@@H]1[C@H](c2ccccc2)OC(=O)N1CCCN1CCCCCC1`, the half-maximal activity concentration (AC50) in test [3] is 2.82 µM [falling, partial curve, poor fit].

As to `OCc1cc([C@@H](O)CNCCCCCCOCCCCc2ccccc2)ccc1O`, the AC50 in test [4] is 15.8 µM [rising, single point]. Also, the max response in test [1] (setting [7]) was 59.4%; in test [1] (setting [8]) it was 75.2%.

For the compound `Cc1cc(O)c(C)c(C)c1O`, the AC50 in test [3] is 35.5 µM [falling, single point].

Turning to `COC(=O)C1=C(C)NC(COC(N)=O)=C(C(=O)OC(C)C)C1c1cccc(Cl)c1Cl` (stereo unspecified), the half-maximal activity concentration (AC50) in test [3] is 28.2 µM [falling, single point].

On to `C#C[C@]1(OC(C)=O)CC[C@H]2[C@@H]3CCC4=C/C(=N/O)CC[C@@H]4[C@H]3CC[C@@]21CC`, for which the concentration at half-maximal activity (AC50) in test [3] is 35.5 µM [falling, partial curve, poor fit].
